Measurements published in paper PMC6864063, “Molecular basis for the interaction between human choline kinase alpha and the SH3 domain of the c-Src tyrosine kinase” (Scientific Reports, 2019).
Blank lines part the entries; values can stand above or below the binder they belong to.

How the values were obtained:
[1] = biological target: T1, c-Src SH3 domain (recombinant, used in SPR) (UniProt P12931-1 in part); assay: SPR; ChoKα Δ49 proteins immobilised on one CM5 chip, Src SH3 injected in triplicate, 2 min association, 2 min dissociation; two-state induced-fit model, KD from the kinetic rate constants; conditions: both partners purified
[2] = biological target: T1, c-Src SH3 domain (recombinant, used in …); assay: SPR; SH3 domains immobilised on one CM5 chip, ChoKα injected in triplicate, 0.1 to 30 µM, 2 min, PBS pH 7.5, 30 µL/min; steady-state KD from RUmax; conditions: both partners purified

Kd [1]: 1.8 µM
B1: Choline kinase alpha Δ49 D306A (kinase-dead) (domain or fragment)
chain: not shown
notes: Choline kinase alpha (ChoKα1), human, […], […] with D306A; also called D306A variant of ChoKαΔ49; source: E. coli Rosetta (DE3)pLysS, purified (HisTrap Ni2+ column, S-200 gel filtration); not shown: His6, N-terminal, cleaved; SUMO, N-terminal, cleaved

Kd [2]: 14.2 µM
B2: Choline kinase alpha, full-length (FL) wild type (enzyme)
chain: not shown
notes: Choline kinase alpha, unspliced variant ChoKα1, 457 residues, human, […]; full length, up to Val457; Cleaved ChoKα constructs were the probes of the pull-downs; also called ChoKα; ChoKα1; source: E. coli Rosetta (DE3)pLysS, purified (HisTrap Ni2+ column, S-200 gel filtration); not shown: His6, N-terminal, cleaved; SUMO, N-terminal, cleaved
